# Among all 46,000 compounds or so, about 60 (0.1%) were called active. About 3% were inconclusive and are not listed. Calls come from the whole dose curve; as a rule, active = well fitted inhibition curve with a large enough effect; inconclusive = small, poorly fitted or top-dose-only effect; inactive = no such curve, though single readings can be large or run the other way. Some of the results follow.
# Assay: Primary qHTS assay for Inhibitors of ovarian cancer metastasis using an organotypic tumor microenvironment (TME) model.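 For activity change, negative = inhibition: plate controls were DMSO wells for no effect and tomatine positive control wells for full effect.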 Note: nearly all actives have a fitted effect of over 65% in size.
# Details: SKOV3ip1-GFP adhesion/invasion on 3D omental model, fluorescence; series mostly up to 45.8 µM; activity change, negative = inhibition: at the top concentration
# Procedure, shortened: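 Primary human omental fibroblast/mesothelial 3D culture pre-formed 48 h. SKOV3ip1-GFP cells added with compounds (0.36-46 umol/L), incubated 2 h RT/16 h 37 C, fixed; GFP cells quantified at 488/509 nm.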
Compound,"activity change, negative = inhibition",outcome
COc1cccc(C(=O)Nc2cccc(C(=O)OCc3cc(=O)n4nc(C(C)C)sc4n3)c2)c1,inactive: -5.17%,
Cc1cc(C)cc(OCC(=O)Nc2ccc(S(=O)(=O)Nc3onc(C)c3C)cc2)c1,inactive: -5.73%,
COc1ccc(S(=O)(=O)NCCc2csc(-c3ccc(F)cc3)n2)cc1,inactive: -1.32%,
CCOC(=O)NC1(C(F)(F)F)NC(=O)N(c2ccc(C)c(C)c2)C1=O (stereo not given),inactive: 31.3%,
O=C(CSC1=Nc2ccccc2C2=NC(Cc3ccccc3)C(=O)N12)Nc1ccccc1F (stereo not given),inactive: -23.3%,
Cc1cc(C)cc(NC(=O)CSc2nc(-c3cccc(Cl)c3)nc3c2Cc2c(CO)cnc(C)c2O3)c1,inactive: -11.4%,
CSc1nc2sc3c(c2c(=O)n1-c1ccc(F)c(Cl)c1)CCN(C(C)=O)C3,inactive: 2.82%,
CCc1ccc(-n2nc(C)c3c(C(=O)Nc4cc(OC)cc(OC)c4)cc(C)nc32)cc1,inactive: -9.2%,
CCOc1ccc(-c2nc(SCC(=O)NCCOC)c(-c3ccc(OC)c(OC)c3)[nH]2)cc1,,inactive
Cc1nc(CC(=O)Nc2ccc(N(C)C)cc2)cs1,inactive: 4.89%,
Cc1ccccc1NC(=O)CSC1=Nc2ccccc2C2=NC(CCC(=O)NCc3ccccc3)C(=O)N12 (stereo not given),inactive: 1.56%,
Cc1nn(CC(=O)NCc2ccccc2Cl)c(=O)c2nn(-c3ccccc3)c(C)c12,inactive: 1.27%,
COc1ccc(-n2nc(C(=O)Nc3cccc(C(F)(F)F)c3)c3c4ccccc4n(C)c3c2=O)cc1,inactive: -0.955%,
Cc1ccc(-c2nc(C)c(CCNS(=O)(=O)c3ccccc3F)s2)cc1,inactive: 1.6%,
CCCCn1cc(S(=O)(=O)c2ccc(OC)cc2)c(=O)c2cc(F)c(N3CCCC3)cc21,inactive: 2.99%,
COc1ccc(C(=O)Nc2ccc3nc(SCC(=O)N4CCCc5ccccc54)sc3c2)cc1,inactive: -19.7%,
COC(=O)c1sccc1S(=O)(=O)N(CC(=O)NCc1ccc(C)cc1)c1ccc(Cl)cc1,inactive: 4.69%,
COC(=O)CN1C(=O)CSc2ccc(S(=O)(=O)N3CCOCC3)cc21,inactive: -0.811%,
CCN(CC)C(=O)c1sc2c(c1C)c(=O)n(-c1ccc(Cl)c(Cl)c1)c(=O)n2Cc1cc(=O)n2c(C)cccc2n1,inactive: -0.329%,
O=S(=O)(NCc1cccc(Br)c1)c1ccc(-c2cc(C(F)(F)F)on2)s1,,inactive
COc1ccccc1CNC(=O)CN1C(=O)COc2ccc(S(=O)(=O)N3CCCCC3)cc21,inactive: -1.37%,
Cc1cc(C)cc(N2C(=O)N(CC(=O)c3ccc(Br)cc3)c3ccccc3S2(=O)=O)c1,inactive: 3.57%,
CCOc1ccc(NC(=O)Cn2cc(C(=O)c3ccc(C)c(C)c3)c(=O)c3cc4c(cc32)OCCO4)cc1,,inactive

Compound,"activity change, negative = inhibition",outcome
Cc1cccc(NC(=O)N2CCC(CN3CCc4ccccc4C3)CC2)c1C,inactive: -22.3%,
CN1C(=O)C(C)(C)c2cc(S(=O)(=O)NCc3ccc(C(=O)Nc4ccc(Cl)cc4)cc3)ccc21,,inactive
O=C1C(=O)N(C2CCN(S(=O)(=O)c3ccc(F)cc3)CC2)CCN1Cc1ccccc1,inactive: 3.4%,
CCN(C(=O)c1oc2ccc(S(=O)(=O)N3CCCCCC3)cc2c1C)c1ccccc1,inactive: -32.1%,
CCOC(=O)c1cccc(NC(=O)CN2C(=O)CC(C)(C)Sc3ccccc32)c1,inactive: -28.9%,
Cc1ccc(Nc2c(-c3ccc(N4CCOCC4)cc3)nc3ncccn23)cc1,inactive: 20.6%,
CCOC(=O)c1cc(S(=O)(=O)N2CCN(c3ccc(OC)cc3)CC2)[nH]n1,inactive: -2.85%,
COc1ccc(CCNC(=O)CCCn2c(=O)c3ccccc3n(Cc3ccccc3C)c2=O)cc1OC,,inactive
Cc1cccc(C)c1OCc1nc2c3cnn(-c4cccc(F)c4)c3ncn2n1,,inactive
CCCCn1c2ccc(F)cc2c2nnc(SCCN(CC)CC)nc21,inactive: -15.9%,
Cc1ccc(CNC(=O)c2c3c(nc4ccccc24)C(=O)N(C2CCCCC2)C3)cc1,,inactive
COc1ccc(CC(=O)NCc2nc3cccnc3n2Cc2ccc(F)cc2)cc1OC,inactive: 12.4%,
CCOc1cc2[nH]c(=O)n(Cc3ccc(C(=O)NCCN(CC)CC)cc3)c(=O)c2cc1OCC,inactive: -1%,
Cc1ccc(C)c(N2CCN(C(=O)c3ccc(CS(=O)(=O)c4ccc(Br)cc4)o3)CC2)c1,inactive: 3.03%,
Cc1ccccc1NC(=O)c1sc2nc3c(cc2c1N)CCCC3,,inactive
CCCN(C(=O)CCc1nc(-c2ccccc2F)no1)c1ccc(CC)cc1,inactive: -2.47%,
COc1ccc(NC(=O)c2cc3c(=O)[nH]c4ccccc4c3n2C)cc1Cl,inactive: -14.7%,
Cc1csc2nc(COC(=O)c3ccccc3NC(=O)c3ccc(F)cc3)cc(=O)n12,,inactive
CN(CC(=O)Nc1cccc(C(F)(F)F)c1)S(=O)(=O)c1ccc2[nH]c3c(c2c1)CCCC3,inactive: -6.93%,
CCc1ccc(CN2C(=O)c3ccccc3C2C(=O)NCCc2ccc(OC)c(OC)c2)cc1 (stereo not given),,inactive
COc1cccc(NC(=O)CSc2nc3ccccc3nc2N2CCOCC2)c1,inactive: -1.94%,
FC(F)c1nc2ccccc2n1-c1nc(N2CCOCC2)nc(N2CCOCC2)n1,inactive: 9.32%,
